Measured values: the antibiotic and cytotoxicity screens of Wong et al. (2023)
The list shows a part of the results.

tested on: S. aureus RN4220; assay: growth inhibition call (relative growth <= 0.2); details: 50 µM

Growth inhibition call, inactive:
C[C@@H]1CCCCO[C@@H](CN(C)C(=O)C2CCCCC2)[C@@H](C)CN([C@H](C)CO)C(=O)c2cc(NC(=O)NC3CCCCC3)ccc2O1, CN(C)CC(=O)N[C@@H]1CC[C@H](CCNC(=O)C2CCC2)O[C@@H]1CO, O=C(CCCCC(=O)N/N=C/c1cc[n+]([O-])cc1)NO, CC1OC(OCC2OC(Oc3c(-c4ccc(O)c(O)c4)oc4cc(O)cc(O)c4c3=O)C(O)C(O)C2O)C(O)C(O)C1O (stereo not given), Cc1noc(C)c1NC(=O)Nc1ccc2c(c1)C(=O)N([C@H](C)CO)C[C@H](C)[C@@H](CN(C)C(=O)Nc1ccc3c(c1)OCO3)OCCCC[C@H](C)O2, N[C@@H](Cc1ccccc1F)C(=O)O, C[C@@H]1CN([C@H](C)CO)C(=O)c2cc(NC(=O)C3CCCCC3)ccc2O[C@@H](C)CCCCO[C@@H]1CN(C)C(=O)c1ccccc1, O=C1[C@H](Cc2ccc(C(F)(F)F)cc2)CCn2cc(nn2)COC[C@@H]2CCCCN2C(=O)[C@H](Cc2ccc(C(F)(F)F)cc2)CCn2cc(nn2)COC[C@@H]2CCCCN12, CCS(=O)(=O)N1CCc2ccc(N)cc2C1, CNc1nc(SCC(N)=O)nc(N2CCOCC2)n1, C[C@@H]1CN([C@@H](C)CO)C(=O)c2cc(NC(=O)Nc3ccc(C(F)(F)F)cc3)ccc2O[C@@H](C)CCCCO[C@@H]1CN(C)C, C[C@@H]1CCCCO[C@@H](CN(C)C(=O)Nc2cccc3ccccc23)[C@@H](C)CN([C@H](C)CO)C(=O)c2cc(NC(=O)Cc3ccccc3)ccc2O1, CN1C(=N)NC(=O)/C1=C/c1cccnc1, COC(=O)OC[C@H]1O[C@@H](Oc2cc(C)cc(O)c2C(=O)CCc2ccc3occc3c2)[C@H](O)[C@@H](O)[C@@H]1O, C[C@@H]1CN([C@H](C)CO)C(=O)c2cc(C#CC3(O)CCCC3)cnc2O[C@@H]1CN(C)C(=O)C1CCOCC1, COc1ccc(S(=O)(=O)N2C[C@@H](O)COC[C@H]3O[C@H](CC(=O)NCCCN(C)C)CC[C@@H]32)cc1, Cc1noc(C)c1NC(=O)N(C)C[C@@H]1OCCCC[C@H](C)Oc2ccc(NS(=O)(=O)c3ccc(Cl)cc3)cc2C(=O)N([C@H](C)CO)C[C@@H]1C, Cc1ccc(S(=O)(=O)Nc2ccc3c(c2)CC(=O)N([C@@H](C)CO)C[C@@H](C)[C@@H](CN(C)C(=O)Nc2cccc4ccccc24)O3)cc1, C[C@H]1CN([C@@H](C)CO)C(=O)c2cc(NS(=O)(=O)c3ccc(F)cc3)ccc2O[C@H]1CN(C)CC1CC1, COc1ccc2c3c([nH]c2c1)[C@H](CO)N(C[C@]13CCN(CC1)CC1CCOCC1)S(=O)(=O)c1cn(cn1)C, COc1cc2ccnc(CCCN)c2cc1OC, c1ccc([C@@H]2CNCCN2)cc1, C[C@@H]1CCCCO[C@@H](CN(C)C(=O)Nc2ccccc2)[C@H](C)CN([C@@H](C)CO)C(=O)c2cc(NC(=O)Nc3ccc4c(c3)OCO4)ccc2O1, CC(C)NC(=O)Nc1ccc2c(c1)CC(=O)N([C@@H](C)CO)C[C@@H](C)[C@@H](CN(C)C(=O)NC1CCCCC1)O2, C[C@@H]1CCCCO[C@H](CN(C)CC2CC2)[C@H](C)CN([C@@H](C)CO)C(=O)c2cc(NS(=O)(=O)c3ccc(Cl)cc3)ccc2O1, C[C@@H]1CN([C@@H](C)CO)C(=O)c2c(c3ccccc3n2C)-c2ccccc2CO[C@H]1CN(C)C(=O)Nc1ccc2c(c1)OCO2, C[C@@H]1CCCCO[C@@H](CN(C)C(=O)c2ccccc2)[C@@H](C)CN([C@H](C)CO)C(=O)c2cc(NC(=O)Nc3ccc(C(F)(F)F)cc3)ccc2O1, NC(=O)NCC#Cc1ccc2c(c1)[C@]1(C(=O)N2)[C@H](C(=O)O)[C@H]2C(=O)O[C@H](c3ccccc3)[C@H](c3ccccc3)N2[C@@H]1c1ccc(OCCO)cc1, CC(C)NC(=O)N(C)C[C@@H]1Oc2ccc(NC(=O)CCCN(C)C)cc2C(=O)N([C@@H](C)CO)C[C@H]1C, C[C@@H]1CCCCO[C@@H](CN(C)S(=O)(=O)c2ccccc2)[C@@H](C)CN([C@H](C)CO)C(=O)c2cc(NC(=O)Nc3ccccc3)ccc2O1
